Experimental data as given in patent publication US20250353894A1 (UNIVERSITAT ULM, published 2025).

Target: T1, complement protein C3b (UniProt P01024 in part; P01024 23-667)
T1 construct: also called factor C3b
Assay: SPR, C3b coupled to chip, 1:1 steady state affinity model
Description: A surface plasmon resonance (SPR)-based assay (Schmidt et al. (2013), Journal of Immunology 190:5712-5721) was used to determine the affinity of the engineered complement inhibitors for the key complement protein C3b. 1940 response units […] of C3b were coupled to the chip. The samples were run at 25 μl/min in a concentration series with the highest and the lowest concentrations being assayed in duplicate to probe reproducibility. To get an estimation of the KD value for other proteins the plot of response (during steady state) against the assayed concentration was fitted to a 1:1 steady state affinity model.

T1 sequence (P01024 749-1663 limits assumed, chain 1 of 2): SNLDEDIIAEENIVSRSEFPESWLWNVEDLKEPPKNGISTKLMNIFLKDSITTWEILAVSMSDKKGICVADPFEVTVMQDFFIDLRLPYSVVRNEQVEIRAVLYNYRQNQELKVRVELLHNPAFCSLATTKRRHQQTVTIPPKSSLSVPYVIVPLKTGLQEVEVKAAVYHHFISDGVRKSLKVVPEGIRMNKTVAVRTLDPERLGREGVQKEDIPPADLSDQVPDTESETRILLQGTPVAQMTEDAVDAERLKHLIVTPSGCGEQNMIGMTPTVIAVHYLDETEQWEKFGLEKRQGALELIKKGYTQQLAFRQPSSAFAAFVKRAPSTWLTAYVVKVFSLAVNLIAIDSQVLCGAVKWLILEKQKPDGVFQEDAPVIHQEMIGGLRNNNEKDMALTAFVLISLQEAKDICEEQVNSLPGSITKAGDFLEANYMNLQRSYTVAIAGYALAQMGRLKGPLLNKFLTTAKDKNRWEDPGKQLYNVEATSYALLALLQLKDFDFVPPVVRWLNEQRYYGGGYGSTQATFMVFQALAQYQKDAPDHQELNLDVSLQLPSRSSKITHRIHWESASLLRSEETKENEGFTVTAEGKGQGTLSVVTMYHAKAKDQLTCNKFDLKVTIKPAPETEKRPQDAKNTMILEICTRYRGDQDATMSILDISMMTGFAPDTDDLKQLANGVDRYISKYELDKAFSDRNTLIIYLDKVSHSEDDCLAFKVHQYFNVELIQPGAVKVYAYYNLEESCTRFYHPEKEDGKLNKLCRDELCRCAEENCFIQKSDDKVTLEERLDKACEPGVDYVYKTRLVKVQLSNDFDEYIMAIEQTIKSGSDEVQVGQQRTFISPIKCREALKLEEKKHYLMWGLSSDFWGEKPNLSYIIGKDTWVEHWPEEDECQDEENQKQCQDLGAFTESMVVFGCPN
T1 sequence (P01024 23-667 limits assumed, chain 2 of 2): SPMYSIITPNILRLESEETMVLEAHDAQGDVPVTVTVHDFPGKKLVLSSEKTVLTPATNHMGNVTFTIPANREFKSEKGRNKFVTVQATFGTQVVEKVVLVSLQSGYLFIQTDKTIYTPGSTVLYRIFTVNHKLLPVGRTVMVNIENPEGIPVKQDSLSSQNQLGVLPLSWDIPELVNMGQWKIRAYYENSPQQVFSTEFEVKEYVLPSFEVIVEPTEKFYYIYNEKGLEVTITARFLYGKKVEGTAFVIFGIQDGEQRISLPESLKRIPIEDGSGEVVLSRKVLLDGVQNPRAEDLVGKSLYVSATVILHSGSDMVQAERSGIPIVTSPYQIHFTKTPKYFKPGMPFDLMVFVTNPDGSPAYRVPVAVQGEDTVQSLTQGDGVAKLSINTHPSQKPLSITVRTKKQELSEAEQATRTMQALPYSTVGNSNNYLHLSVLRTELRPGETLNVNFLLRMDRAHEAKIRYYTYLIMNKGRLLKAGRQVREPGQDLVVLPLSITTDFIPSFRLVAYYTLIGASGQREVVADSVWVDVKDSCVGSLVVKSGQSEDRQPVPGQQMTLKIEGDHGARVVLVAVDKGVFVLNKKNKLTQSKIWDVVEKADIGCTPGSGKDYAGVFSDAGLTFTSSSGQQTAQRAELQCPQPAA

- Kd: 389 nM
B1: CR1(1-3)FH(19-20) long linker (other)
chain: QCNAPEWLPFARPTQLTDEFEFPIGTYLNYECRPGYSGRPFSIICLKNSVWTGAKDRCRRKSCRNPPDPVNGMVHVIKGIQFGSQIKYSCTKGYRLIGSSSATCIISGDTVIWDQETPICDRIPCGLPPTITNGDFISTNRENFHYGSVVTYRCNPGSGGRKVFELVGEPSIYCTSNDDQVGIWSGPAPQCIIGGGGGGGGGGGGGGKCGPPPPIDNGDITSFPLSVYAPASSVEYQCQNLYQLEGNKRITCRNGQWSEPPKCLHPCVISREIMENYNIALRWTAKQKLYSRTGESVEFVCKRGYRLSSRSHTLRTTCWDGKLEYPTCA
notes: Fusion protein with an oligo-glycine linker; also called CR1(1-3)FH(19-20)-LL
